From US6841566B2, “Viral polymerase inhibitors” (Boehringer Ingelheim, Ltd., priority 2001, dated 2005) come the findings set out here.

The term IC50 denotes the concentration that inhibits the measured activity by half. Read a high IC50 as lower potency.

This assay deals with hepatitis C virus RNA dependant polymerase (NS5B) (Hepatitis C virus genotype 1b, UniProt P26663). Kind of assay: Inhibition of NS5B RNA dependent RNA polymerase activity (SPA, oligo-U/polyA).
In the case of `O=C(O)/C=C/c1ccc(NC(=O)C2(NC(=O)c3ccc4c(c3)nc(-c3ccoc3)n4C3CCCCC3)CCNCC2)cc1` [compound 1100], the IC50 was less than 500 nM.

`COC(CC(=O)O)c1ccc(NC(=O)C2(NC(=O)c3ccc4c(c3)nc(-c3ccoc3)n4C3CCCCC3)CCCC2)cc1` (centres unmarked) [compound 1043]: the IC50 is 500 to 5000 nM.

For `O=C(O)/C=C/c1ccc(NC(=O)C2(NC(=O)c3ccc4c(c3)nc(-c3cccc5c3OCO5)n4C3CCCC3)CCCC2)cc1` [compound 2015], the IC50 was 500 to 5000 nM.

Molecule `O=C(O)/C=C/c1ccc(NC(=O)C2(NC(=O)c3ccc4c(c3)nc(-c3cccc5c3OCO5)n4C3CCCCC3)CCCC2)cc1` [compound 2051] returned an IC50 of 500 to 5000 nM.

For the molecule `O=C(NC1(C(=O)Nc2cc(C(=O)O)n[nH]2)CCCC1)c1ccc2c(c1)nc(-c1ccoc1)n2C1CCCCC1` [compound 1050], the IC50 fell in the range of 500 to 5000 nM.

With `O=C(NC1(C(=O)Nc2ccc3[nH]c(C(=O)O)cc3c2)CCCC1)c1ccc2c(c1)nc(-c1ccoc1)n2C1CCCCC1` [compound 1098], the IC50 is less than 500 nM.

In the case of `C[C@@H](NC(=O)c1ccc2c(c1)nc(-c1ccoc1)n2C1CCCCC1)C(=O)Nc1ccc2oc(C(=O)O)cc2c1` [compound 1096], the 50% inhibitory concentration (IC50) was less than 500 nM.

`CC1CCCC(C)C1n1c(-c2ccco2)nc2cc(C(=O)NC3(C(=O)Nc4ccc(C=CC(=O)O)cc4)CCCC3)ccc21` (mixture of isomers) [compound 2033] registered an IC50 of 500 to 5000 nM.
